According to US8163870B2, “Channel forming peptides” (Kansas State University Research Foundation, priority 2000, dated 2012):
At least one peptide structure holds a part that was inferred or is arguable (an end, a ring closure or a residue). Some entries repeat one wording, which the source may state once for all of them. No end group written: not given here.

Columns and labels:
MDCK monolayers [1] = test: FITC-dextran permeability assay; format: cell-based, canine
Description: Confluent MDCK cell monolayers were washed once with Ringer solution and placed in one of three treatments containing FITC-conjugated dextran (Sigma Chemical Co.) in the apical compartment; 1, Ringer solution in the apical and basolateral compartments; 2, Ringer solution apical and basolateral with SEQ ID No. 27 (also referred to herein as NC-1059) (100 μM) in the apical solution; 3, EDTA (3 mM) in Ringer solution that had been diluted 1:1 with distilled water in both the apical and basolateral compartments. Monolayers are incubated at 37° C. for 60 minutes and the solution in the basolateral well sampled to quantify fluorescently labeled dextran. Monolayers are then washed with Ringer solution to remove peptide, EDTA, and dextran, placed in tissue culture medium and returned to the incubator for two days before the assay was conducted again.
FITC-dextran permeability assay. Epithelial permeability to uncharged solutes of various sizes was assessed with monolayers grown on Snapwell tissue culture inserts as described above. Confluent monolayers were washed once with Ringer solution and placed in one of three treatments containing FITC-conjugated dextran (Sigma Chemical Co.) in the apical compartment; 1, Ringer solution in the apical and basolateral compartments; 2, Ringer solution apical and basolateral with NC-1059(SEQ ID No. 27) (100 μM) in the apical solution; or 3, EDTA (3 mM) in Ringer solution that had been diluted 1:1 with distilled water in both the apical and basolateral compartments. Monolayers were incubated at 37° C. for 60 minutes and the solution in the basolateral well was sampled to quantify fluorescently labeled dextran. Monolayers were then washed with Ringer solution to remove peptide, EDTA, and dextran, placed in tissue culture medium and returned to the incubator for two days before the assay was conducted again.

MDCK monolayers [2] = test: Transepithelial electrical resistance (RTE) / conductance (gTE) across MDCK monolayers; format: cell-based, canine
Description: Transepithelial ion transport was evaluated in a modified Ussing chamber (Model DCV9, Navicyte, San Diego, Calif.). The Ussing chamber's fluid resistance compensation was completed in Ringer solution (composition (in mM) was 120 NaCl, 25 NaHCO3 3.3 KH2HPO4, 0.8 K2HPO4, 1.2 MgCl2, 1.2 CaCl2). For electrical measurements cell monolayers were bathed in Ringer solution maintained at 37° C. and continuously bubbled with 5% CO2:95% O2. The transepithelial membrane potential (Vte) was clamped to zero and the transepithelial short circuit current (Isc), an indicator of net ion transport, was measured continuously with a voltage clamp apparatus (Model 558C, University of Iowa, Department of Bioengineering, Iowa City, Iowa). Data were digitally acquired at 1 Hz with a Macintosh computer (Apple Computer, Cuppertino, Calif.) using Aqknowledge software (ver. 3.2.6, BIOPAC Systems, Santa Barbara, Calif.) with an MP100A-CE interface.
MDCK cell monolayers (in the presence of 1-EBIO to maximize basolateral membrane K^+ conductance) were exposed on the apical aspect to various concentrations of selected peptides as indicated.
In this experiment, the MDCK monolayers were initially incubated with 60 μM of SEQ ID No. 27. When the residual resistance reached approximately 10% of the starting value, the peptide was removed by aspiration and followed by the addition of pre-warmed Ringer solution. This solution was subsequently removed and replaced an additional five times over the next 2 minutes. In this figure, the solid central line represents the measured current at zero mV and the vertical deflections represent the current recorded during periodic 1 mV bipolar pulses. Pulse amplitude is inversely proportional to RTE in accordance with Ohm's law.
Additional experiments have been conducted to test for complete reversibility of peptide-induced changes in RTE. Monolayers were exposed to peptide (60 μM) in an Ussing chamber for ˜20 minutes to document decreases in RTE, recovered and returned to the cell culture incubator for two to five days with the apical and basolateral media refreshed daily before subsequent assessment of basal RTE and responsiveness to peptide. In the previous example, the return of RTE was only followed for hours. In this example, the restoration of RTE was measured over days to determine the minimum time require for full recovery.
Electrical measurements. Transepithelial ion transport was evaluated in modified Ussing chambers (Model DCV9; Navicyte, San Diego, Calif.). For typical electrical measurements of ion flux, cells were bathed in symmetrical Ringer solution (composition in mM: 120 NaCl, 25 NaHCO3, 3.3 KH2HPO4, 0.8 K2HPO4, 1.2 MgCl2, 1.2 CaCl 2; 290±2 mOsmol). The diffusion chambers were maintained at 37° C. and continuously bubbled with 5% CO2/95% O2 to maintain pH, provide aeration and mix the fluid in the chambers. The transepithelial potential (VTE) was clamped to zero, and ISC measured continuously with a voltage-clamp apparatus (Model 558C, University of Iowa, Department of Bioengineering, Iowa City, Iowa). Data were acquired at 1 Hz with a Macintosh computer (Apple Computer, Cuppertino, Calif.) using Aqknowledge software (ver. 3.2.6; BIOPAC Systems, Santa Barbara, Calif.) with an MP100A-CE interface. gTE was determined by exposing the epithelia to a 5 second 1 mV bipolar pulse at 100 second intervals. The recorded current deflections were used with Ohms law to calculate gTE: […]

[3] = test system: porcine ileal epithelia (IPEC-J2); test: gTE across porcine ileal epithelia; format: cell-based; settings: unpublished observations
[4] = test system: male porcine reproductive epithelia; test: gTE across male porcine reproductive epithelia; format: cell-based; settings: unpublished observations
Xenopus oocytes = test: Two-electrode voltage clamp, membrane conductance and permselectivity; format: cell-based, Xenopus laevis; settings: 100 μM, ND96, n=6

KKKKAARVGLGITTVLVTTIGLGVRAA [SEQ ID No. 27, KKKKAARVGL GITTVLVTTI GLGVRAA]
permeation by 77 kDa and larger solutes (MDCK monolayers [1]; 100 μM apical, 60 minute assay): lack of permeation | transepithelial flux of FITC-labeled 9.5 kDa dextran (MDCK monolayers [1]; 100 μM apical, 60 minute assay): substantial increment in transepithelial flux | epithelial permeation by 9.5 kDa FITC-dextran (MDCK monolayers [1]; 100 μM, absence of 1-EBIO, peptide removed, 15 minutes): significantly enhanced | permeation of 20 kDa FITC-dextran conjugate (MDCK monolayers [1]; SEQ ID NO. 27 100 μM, EDTA 3 mM in hypotonic Ringer): significantly greater that control, but less than EDTA | size of uncharged solutes with transiently increased permeability (MDCK monolayers [1]; apical exposure of MDCK monolayers): up to 20 kDa | t0, time to reach gTEmax/2 (MDCK monolayers [2]; 30 μM): 15.3 ± 0.6 min | duration of maintained submaximal increase in gTE (MDCK monolayers [2]; 35 μM, no replacement of apical solution): over 3 hrs | rate of increase in gTE (b), maximal rate (MDCK monolayers [2]; 60 μM): 5.1 ± 0.6 min⁻¹ | t0, time to reach gTEmax/2 (MDCK monolayers [2]; 60 μM): 12.4 ± 1.5 min | minimum RTE observed (MDCK monolayers [2]; 60 μM, shortly after peptide removal, 600 Ωcm^2 before): 40 Ωcm^2 | gTE with peptide exposure (MDCK monolayers [2]; 60 μM, ~20 minutes, repeated exposures): greater than 15 mS cm^−2 | gTE after exposure (MDCK monolayers [2]; 100 μM final after 35 μM): 17 mS cm^−2 | gTE before the subsequent assessment (MDCK monolayers [2]; 2-, 3-, 4-day intervals after exposure): less than 2 mS cm^−2 | concentration triggering conductance increases (MDCK monolayers [2]; MDCK monolayers): 40 µM | effect on transepithelial electrical resistance (MDCK monolayers [2]; MDCK monolayers, upon onset of channel activity): dramatic decrease in transepithelial electrical resistance | gTEmax, maximal change in gTE (MDCK monolayers [2]; maximum value, 60 μM, logistic fit): 33.5±2.2 mS cm^−2 | RTE after six hours (MDCK monolayers [2]; six hours after removal of 60 μM peptide): 135 Ωcm^2 | time to peak change in gTE (MDCK monolayers [2]; time of exposure): 10 to 30 min | gTE after two days incubation in peptide-free media (MDCK monolayers [2]; untreated monolayers 0.5±0.1): 0.6±0.1 mS cm^−2 | effect on gTE [3]: stimulates gTE | effect on gTE [4]: stimulates gTE | increase in membrane g (Xenopus oocytes): > 18±4 fold
